# Source: the supplement of paper PMC7826260
# This is one part of the list. The data describe in vitro nicking of single-stranded DNA by Rep domains (1 h at 37 °C, 3 µM enzyme); the outer parts of the 90-letter strands are left off. Values are log2 of uncut reads against the no-enzyme pool; the lower, the more was cut; hits are not called. Reads are scaled to the total; values above 0 arise when much of the pool is cut.
# Test system: T1, Rep nickase domain of tomato golden mosaic virus
# T1 sequence (residues 1-124 of Rep, tag left off): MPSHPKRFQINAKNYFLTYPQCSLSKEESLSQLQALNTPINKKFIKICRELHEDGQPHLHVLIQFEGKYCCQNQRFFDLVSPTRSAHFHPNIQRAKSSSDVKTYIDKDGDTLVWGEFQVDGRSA
# Experiment: uncleaved DNA left, log2 of reads against the no-enzyme library (log2 ratio); higher = less cleavage (more negative = more Rep cleavage of the k-mer); sequences stand for … in CTCGTCCG…ACCGGAGA
# Protocol: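 A pool of 90-nt single-stranded DNAs with seven random bases just before the constant AC of the nick site (name = the seven bases) was cut by 3 µM recombinant His6-SUMO-tagged Rep nickase domain (300 nM DNA, 50 mM HEPES pH 8.0, 50 mM NaCl, 1 mM MnCl2, 1 h, 37 °C, three replicates). Uncut DNA was amplified and sequenced.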
row,Sequence,uncleaved DNA left (log2)
1,ATGACGA,0.0661
2,CGTAGTA,-0.0325
3,TTAATTC,-0.0879
4,GGGCCAA,0.0036
5,ACCCGTC,-0.153
6,TGAGGAT,0.211
7,GATTGAA,0.132
8,CATGCAT,-0.187
9,TGATCCT,-0.132
10,TGACGCT,-0.122
11,GTGAACT,-0.0168
12,TGTATTT,-0.0133
13,TATCTTT,-0.0977
14,TGACCCC,0.0522
15,ACCCAGG,0.123
16,TGGGTTG,-0.0774
17,CCGCCGA,-0.328
18,AGGTCTG,0.13
19,CTTGTAC,-0.0516
20,TAAACCG,-0.0433

row,Sequence,uncleaved DNA left (log2)
1,CTAAGGC,0.0798
2,TTCACTC,-0.0881
3,CTCCCAC,-0.0362
4,AGAATGG,0.0756
5,CTCTGCA,-0.0674
6,ACATAAC,0.0639
7,ATCGAAC,-0.0516
8,CATCAAA,0.0534
9,GCCGTTA,-0.101
10,TACTACG,-0.107
11,ACCACAT,0.0745
12,CTGGCAG,-0.00768
13,TAGTAAT,-0.922
14,ATAGCAA,-0.036
15,CAGTCCA,0.0132
16,CCGTAGA,0.0861
17,TTGGACG,0.0237
18,GTGTTTA,0.037
19,CCATTTT,-0.15
20,CGCTTCC,-0.135
